Results from paper PMC11685948.
These are yes or no findings as the source states them, for the method shown. Binding seen in cells or lysates may run through a third protein. Some results given as binding are weak or reduced against the parent protein; the word gives no strength.

Target: ZAP-L-FLAG (human), Q7Z2W4
Assay: co-IP; anti-FLAG IP of doxycycline-induced ZAP-L-FLAG or ZAP-N-FLAG from RNase A-treated lysates of 293T ZAP-/- TRIM25-/- KHNYN-/- N4BP1-/- cells transfected with 3xHA-tagged ZAP proteins; washes with 500 mM KCl; western blot (Fig. 2d)
Settings: remark: other sources report otherwise

B1: ZAP-L-3xHA, Q7Z2W4-1 1-902 (protein)
chain: MADPEVCCFITKILCAHGGRMALDALLQEIALSEPQLCEVLQVAGPDRFVVLETGGEAGITRSVVATTRARVCRRKYCQRPCDNLHLCKLNLLGRCNYSQSERNLCKYSHEVLSEENFKVLKNHELSGLNKEELAVLLLQSDPFFMPEICKSYKGEGRQQICNQQPPCSRLHICDHFTRGNCRFPNCLRSHNLMDRKVLAIMREHGLNPDVVQNIQDICNSKHMQKNPPGPRAPSSHRRNMAYRARSKSRDRFFQGSQEFLASASASAERSCTPSPDQISHRASLEDAPVDDLTRKFTYLGSQDRARPPSGSSKATDLGGTSQAGTSQRFLENGSQEDLLHGNPGSTYLASNSTSAPNWKSLTSWTNDQGARRKTVFSPTLPAARSSLGSLQTPEAVTTRKGTGLLSSDYRIINGKSGTQDIQPGPLFNNNADGVATDITSTRSLNYKSTSSGHREISSPRIQDAGPASRDVQATGRIADDADPRVALVNDSLSDVTSTTSSRVDDHDSEEICLDHLCKGCPLNGSCSKVHFHLPYRWQMLIGKTWTDFEHMETIEKGYCNPGIHLCSVGSYTINFRVMSCDSFPIRRLSTPSSVTKPANSVFTTKWIWYWKNESGTWIQYGEEKDKRKNSNVDSSYLESLYQSCPRGVVPFQAGSRNYELSFQGMIQTNIASKTQKDVIRRPTFVPQWYVQQMKRGPDHQPAKTSSVSLTATFRPQEDFCFLSSKKYKLSEIHHLHPEYVRVSEHFKASMKNFKIEKIKKIENSELLDKFTWKKSQMKEEGKLLFYATSRAYVESICSNNFDSFLHETHENKYGKGIYFAKDAIYSHKNCPYDAKNVVMFVAQVLVGKFTEGNITYTSPPPQFDSCVDTRSNPSVFVIFQKDQVYPQYVIEYTEDKACVIS
In the case of B1, the binding is reported as “binds”.
